Data from the supplement of paper PMC11417369.
± gives the standard deviation of the averaged measurements. The list shows a part of the results.

System: PfAP2-EXP AP2 domain (GST-tagged)
Experiment: gcPBM binding intensity (ln(normalized median fluorescence intensity)); higher = stronger DNA binding
How it was run: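 Binding of GST-tagged P. falciparum DNA-binding domains, expressed in E. coli and used at about 25 μg on average, was carried out for 1 h in 1× PBS containing 1% milk, 0.2 mg/ml BSA, 0.5% salmon testes DNA and 0.03% Triton X-100. The target was an Agilent 4 × 180k array of primer-extended double-stranded 36-bp intergenic genomic probes plus negative controls, read with Alexa488 anti-GST antibody at 488 nm. Binding intensity is the highest Masliner-normalised natural-log median intensity across replicate spots of either probe orientation.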

| Sequence | gcPBM binding intensity (ln) |
| --- | --- |
| ATAAATAAAAACACAAAACAAAACAAAACAAAACAA [CACACA_negctrl_site1257] | 8.41 ± 0.57 |
| ATATATATTGTACTAGTGCATATATATACATATATT | 8.52 ± 0.071 |
| TTTCATCTATATGAAACACACAAAGGAAAAAAAATT [CACACA_site7869] | 8.88 ± 0.42 |
| AGATTCAAAAATAAAACATGCAAAAATAAAACGTGC [TGCATGCA_site501] | 9.26 ± 0.36 |
| TAATAAATGGCTAGTTGTACAGAAATATAAATATTA [XGTACX_site4579] | 8.51 ± 0.36 |
| GCCTCATCGTAGCAGTGTACGTTTTTTTTTTTTTTT [XGTACX_site8648] | 8.91 ± 0.29 |
| ACAATTTATATTATATGTACTTAAAAAGTTCGTAAA [XGTACX_site6421] | 8.21 ± 0.25 |
| TTTTATACATAAATATGTACGTATATATAATGAATT [XGTACX_site1337] | 8.38 ± 0.37 |
| TATAACATATGACACACACACATACATACACAAAAA [CACACA_site6935] | 8.87 ± 0.47 |
| TATATATATTTATGTACACACACACCGATAAATAAA [CACACA_site4404] | 8.91 ± 0.48 |
| TTCTAAAATTATATAGTGCAATTATATTAATTTTTC | 8.39 ± 0.028 |
| ATAACAACCCAATGTTGTACATTTAAATATAACGTA [XGTACX_site7114] | 8.48 ± 0.39 |
| AAAAATAAAAAAAATACATGCAATGAAACATTTATT [TGCATGCA_site263] | 8.8 ± 0.13 |
| TTACGCGCTTATTACACACACATACAAATAAGGATT [CACACA_site3486] | 8.69 ± 0.47 |
| ATTTGTATTGTATATGCACACATAGAACACTTTTTT [CACACA_site9373] | 8.62 ± 0.29 |
| AACAAAATAAAAAAAACATGCAAGAATTCTTATATG [TGCATGCA_site714] | 8.86 ± 0.38 |
| TTGTGTTTGAAAAAATGTACATGTGTCTTACAACAA [XGTACX_site8371] | 8.61 ± 0.33 |
| TTATACAGATATTTAACACACATTTTATAAAGTGCC [CACACA_site4851] | 8.28 ± 0.37 |
| AAATATTTATATGTTACACACTGTTTATAACTTTCT [CACACA_site6752] | 8.63 ± 0.43 |
| ACCCTATCTGTAACTACACACCGCATATTGTTTACT [CACACA_site5661] | 9.28 ± 0.4 |
| ATAAATGACAGACACACACACAAAAAAAAAAAACAA [CACACA_site2626] | 8.84 ± 0.24 |
| CTTCTGTAATTATCACGTACATATAATAATTAAAAT [XGTACX_site8973] | 8.65 ± 0.32 |

| Sequence | gcPBM binding intensity (ln) |
| --- | --- |
| TTTTTATCTTTGCTGTGTACATAAATAAAAATAACT [XGTACX_site7625] | 8.81 ± 0.18 |
| TTTTTTTTGATAAGTTGTACAATGATATATATCCCT [XGTACX_site3560] | 8.69 ± 0.48 |
| ATAGTTTAATTTATATGTACATATAATATTGATTTG [XGTACX_site7520] | 8.64 ± 0.4 |
| TATATTTTATATTGGTGTACAATTTTTTTTTTTTTT [XGTACX_site4291] | 8.3 ± 0.42 |
| CCTTTTTTTTTTTTATGTACTAAAATAAAATTAGAA [XGTACX_site5956] | 8.38 ± 0.25 |
| TACAACATATTCAAATGTACAAATATAGGAATGAAA [XGTACX_site2730] | 8.83 ± 0.55 |
| AACATAAAATGGATATGTACATAAAAATATATACTC [XGTACX_site7775] | 8.66 ± 0.26 |
| AGCGTATTATACTGACGTACATTTTATGTAACTCCA [XGTACX_site2715] | 8.27 ± 0.16 |
| CGTTAGAGGGCTTTATCACACATGAAAAAAAAAAAA [CACACA_site5155] | 8.14 ± 0.33 |
| TTATGTATTCATAACACATGCAAATAGGATCATATA [TGCATGCA_site731] | 8.99 ± 0.31 |
| ATATGATTTCACAAGACACACACATACAAATTTATA [CACACA_site9296] | 8.72 ± 0.4 |
| CACACGCACAGACACACACACACATATAAATATGTA [CACACA_site6300] | 8.73 ± 0.36 |
| AAAAAAAAAAAAAACACACACAAATTTAATATATAT [CACACA_site1695] | 8.45 ± 0.55 |
| TATATATATAACAACACACACAGATCATAAAACTGC [CACACA_site2161] | 9.07 ± 0.092 |
| TCCCAAGGAGTAGGCACACATAAAATATTATACATA [CACACA_site717] | 8.38 ± 0.5 |
| TATATTTATTTTAACACACACATATATATATTATAT [CACACA_site4729] | 8.62 ± 0.3 |
| AAAAAAAAAAAAAAAACACACACAAATTTAATATAT [CACACA_site8492] | 8.59 ± 0.29 |
| TACACCAAAAAAAAACGTACAAAATCCCACCCAGAC [XGTACX_site4622] | 9.51 ± 0.4 |
| AAAATTAAAGTAAGGACACACATATATAATACATAT [CACACA_site823] | 8.84 ± 0.35 |
| GTGTTCTTGTTATACACACACATATTTATATTTATA [CACACA_site6615] | 8.72 ± 0.26 |
| TAGTATCAATCTTATACATGCATAAAATAATTATAA [TGCATGCA_site1052] | 8.78 ± 0.36 |
| TTTATTTATATAATTACACACATATATACGCAAATG [CACACA_site2794] | 8.72 ± 0.47 |
